# Results published in the supplement of paper PMC8728848.
# The list shows a part of the results.
# What was measured:
# Assay in all cases: glycan array binding signal (z-score within array); higher = stronger binding
# Details in all cases: glycan notation: IUPAC condensed, linker removed
# Gal(b1-3)GlcNAc(b1-2)Man = biological target: Gal(b1-3)GlcNAc(b1-2)Man
# In short: (§1)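 Glycan array binding is given as a within-array Z-score, which can be read as non-binding when negative. The arrays, 3228 of them, came from the Consortium for Functional Glycomics database and were retained only where the protein sequence was available. Z-scores were averaged across arrays of the same protein sequence at different concentrations or buffers and across linkers.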
# [1] = biological target: Gal(b1-3)GlcNAc(b1-2)Man(a1-3)[Gal(b1-3)GlcNAc(b1-2)Man(a1-6)]Man(b1-4)GlcNAc(b1-4)GlcNAc
# In short: as §1
# [2] = biological target: Gal(b1-3)GlcNAc(b1-2)Man(a1-3)[Gal(b1-3)GlcNAc(b1-2)Man(a1-6)]Man(b1-4)GlcNAc(b1-4)[Fuc(a1-6)]GlcNAc
# In short: as §1
# [3] = biological target: Gal(b1-3)GlcNAc(b1-2)Man(a1-3)[GlcNAc(b1-4)][Gal(b1-3)GlcNAc(b1-2)Man(a1-6)]Man(b1-4)GlcNAc(b1-4)GlcNAc
# In short: as §1
# [4] = biological target: Gal(b1-3)GlcNAc(b1-2)[Gal(b1-3)GlcNAc(b1-6)]Man(a1-6)[Gal(b1-3)GlcNAc(b1-2)Man(a1-3)]Man(b1-4)GlcNAc(b1-4)GlcNAc
# In short: as §1
# [5] = biological target: Gal(b1-3)GlcNAc(b1-3)Gal(b1-3)GlcNAc
# In short: as §1
# [6] = biological target: Gal(b1-3)GlcNAc(b1-3)Gal(b1-4)Glc
# In short: as §1
# [7] = biological target: Gal(b1-3)GlcNAc(b1-3)Gal(b1-4)GlcNAc
# In short: as §1
# [8] = biological target: Gal(b1-3)GlcNAc(b1-3)Gal(b1-4)GlcNAc(b1-2)Man(a1-3)[Gal(b1-3)GlcNAc(b1-3)Gal(b1-4)GlcNAc(b1-2)Man(a1-6)]Man(b1-4)GlcNAc(b1-4)GlcNAc
# In short: as §1
# [9] = biological target: Gal(b1-3)GlcNAc(b1-3)Gal(b1-4)GlcNAc(b1-2)[Gal(b1-3)GlcNAc(b1-3)Gal(b1-4)GlcNAc(b1-6)]Man(a1-6)[Gal(b1-3)GlcNAc(b1-3)Gal(b1-4)GlcNAc(b1-2)Man(a1-3)]Man(b1-4)GlcNAc(b1-4)[Fuc(a1-6)]GlcNAc
# In short: as §1
# [10] = biological target: Gal(b1-3)GlcNAc(b1-3)Gal(b1-4)GlcNAc(b1-3)Gal(b1-4)GlcNAc(b1-2)[Gal(b1-3)GlcNAc(b1-3)Gal(b1-4)GlcNAc(b1-3)Gal(b1-4)GlcNAc(b1-6)]Man(a1-6)[Gal(b1-3)GlcNAc(b1-3)Gal(b1-4)GlcNAc(b1-3)Gal(b1-4)GlcNAc(b1-2)Man(a1-3)]Man(b1-4)GlcNAc(b1-4)[Fuc(a1-6)]GlcNAc
# In short: as §1
# [11] = biological target: Gal(b1-3)GlcNAc(b1-3)Gal(b1-4)GlcNAc(b1-6)[Gal(b1-3)GlcNAc(b1-3)]Gal(b1-4)Glc
# In short: as §1
# [12] = biological target: Gal(b1-3)GlcNAc(b1-3)Gal(b1-4)[Fuc(a1-3)]GlcNAc
# In short: as §1
# [13] = biological target: Gal(b1-3)GlcNAc(b1-3)Gal(b1-4)[Fuc(a1-3)]GlcNAc(b1-6)[Gal(b1-3)GlcNAc(b1-3)]Gal(b1-4)Glc
# In short: as §1
# [14] = biological target: Gal(b1-3)GlcNAc(b1-3)GalNAc
# In short: as §1
# [15] = biological target: Gal(b1-3)GlcNAc(b1-6)Gal(b1-4)GlcNAc
# In short: as §1
# [16] = biological target: Gal(b1-3)GlcNAc(b1-6)GalNAc
# In short: as §1
# [17] = biological target: Gal(b1-3)GlcNAc(b1-6)[Gal(b1-3)]GalNAc
# In short: as §1
# Gal(b1-3)GlcNAc6S = biological target: Gal(b1-3)GlcNAc6S
# In short: as §1
# [18] = biological target: Gal(b1-3)[Fuc(a1-4)]GlcNAc
# In short: as §1
# [19] = biological target: Gal(b1-3)[Fuc(a1-4)]GlcNAc(b1-2)Man
# In short: as §1
# [20] = biological target: Gal(b1-3)[Fuc(a1-4)]GlcNAc(b1-2)Man(a1-3)[Gal(b1-3)[Fuc(a1-4)]GlcNAc(b1-2)Man(a1-6)]Man(b1-4)GlcNAc(b1-4)[Fuc(a1-6)]GlcNAc
# In short: as §1
# [21] = biological target: Gal(b1-3)[Fuc(a1-4)]GlcNAc(b1-3)Gal(b1-3)[Fuc(a1-4)]GlcNAc
# In short: as §1
# [22] = biological target: Gal(b1-3)[Fuc(a1-4)]GlcNAc(b1-3)Gal(b1-4)GlcNAc
# In short: as §1
# [23] = biological target: Gal(b1-3)[Fuc(a1-4)]GlcNAc(b1-3)Gal(b1-4)[Fuc(a1-3)]GlcNAc
# In short: as §1
# [24] = biological target: Gal(b1-3)[Fuc(a1-4)]GlcNAc(b1-6)GalNAc
# In short: as §1
# [25] = biological target: Gal(b1-3)[GlcNAc(b1-6)]GalNAc
# In short: as §1
# [26] = biological target: Gal(b1-3)[GlcNAc(b1-6)]GlcNAc
# In short: as §1
# [27] = biological target: Gal(b1-3)[Neu5Ac(a2-6)]GalNAc
# In short: as §1
# [28] = biological target: Gal(b1-3)[Neu5Ac(a2-6)]GlcNAc
# In short: as §1
# [29] = biological target: Gal(b1-3)[Neu5Ac(a2-6)]GlcNAc(a1-4)Gal(b1-4)Glc
# In short: as §1
# [30] = biological target: Gal(b1-3)[Neu5Ac(a2-6)]GlcNAc(b1-4)Gal(b1-4)Glc
# In short: as §1
# [31] = biological target: Gal(b1-3)[Neu5Ac(a2-6)]GlcNAc(b1-6)Gal(b1-4)Glc
# In short: as §1
# [32] = biological target: Gal(b1-3)[Neu5Ac(b2-6)]GalNAc
# In short: as §1
# [33] = biological target: Gal(b1-3)[Neu5Ac(b2-6)]GlcNAc
# In short: as §1
# Gal(b1-4)Gal = biological target: Gal(b1-4)Gal
# In short: as §1
# [34] = biological target: Gal(b1-4)GalNAc(a1-3)[Fuc(a1-2)]Gal(b1-4)GlcNAc
# In short: as §1
binder,measurement,setting,value
"UEA-I (Ulex europaeus), P22972 (protein) SDDLSFKFKNFSQNGKDLSFQGDASVIETGVLQLNKVGNNLPDETGGIARYIAPIHIWNCNTGEVASFITSFSFFMETSANPKAATDGLTFFLAPPDSPLRRAGGYFGLFEDTKDNDSSYQTVAVEFDTIGSPVNFDDPGFPHIGIDVNRVKSINAERWNKRYGLNNVANVEIIYEASSKTLTASLTYPSDQTSISVTSIVDLKEILPEWVSVGFSGGTYIGRQATHEVLNWYFTSNLINTNS",glycan array binding signal (z-score),Gal(b1-3)GlcNAc(b1-2)Man,-0.121
same,glycan array binding signal (z-score),[1],-0.101
same,glycan array binding signal (z-score),[2],-0.16
same,glycan array binding signal (z-score),[3],-0.116
same,glycan array binding signal (z-score),[4],-0.2
same,glycan array binding signal (z-score),[5],-0.159
same,glycan array binding signal (z-score),[6],-0.198
same,glycan array binding signal (z-score),[7],-0.198
same,glycan array binding signal (z-score),[8],-0.086
same,glycan array binding signal (z-score),[9],-0.109
same,glycan array binding signal (z-score),[10],-0.064
same,glycan array binding signal (z-score),[11],-0.158
same,glycan array binding signal (z-score),[12],-0.174
same,glycan array binding signal (z-score),[13],-0.187
same,glycan array binding signal (z-score),[14],-0.18
same,glycan array binding signal (z-score),[15],-0.253
same,glycan array binding signal (z-score),[16],-0.219
same,glycan array binding signal (z-score),[17],-0.177
same,glycan array binding signal (z-score),Gal(b1-3)GlcNAc6S,-0.29
same,glycan array binding signal (z-score),[18],-0.183
same,glycan array binding signal (z-score),[19],-0.099
same,glycan array binding signal (z-score),[20],-0.002
same,glycan array binding signal (z-score),[21],-0.151
same,glycan array binding signal (z-score),[22],-0.113
same,glycan array binding signal (z-score),[23],-0.199
same,glycan array binding signal (z-score),[24],-0.098
same,glycan array binding signal (z-score),[25],-0.023
same,glycan array binding signal (z-score),[26],-0.576
same,glycan array binding signal (z-score),[27],-0.192
same,glycan array binding signal (z-score),[28],-0.562
same,glycan array binding signal (z-score),[29],-0.409
same,glycan array binding signal (z-score),[30],-0.234
same,glycan array binding signal (z-score),[31],-0.24
same,glycan array binding signal (z-score),[32],-0.228
same,glycan array binding signal (z-score),[33],-0.41
same,glycan array binding signal (z-score),Gal(b1-4)Gal,-0.218
same,glycan array binding signal (z-score),[34],-0.22
